{"source": "patent US20100087406A1", "about": "“INDUCTION OF INNATE IMMUNITY BY VITAMIN D3 AND ITS ANALOGS” (CEDARS-SINAI MEDICAL CENTER, priority 2004, published 2010)", "key": {"CAMP": {"system": "CAMP", "test": "Induction of CAMP mRNA expression in U937 cells (QRT-PCR, RT-PCR, Northern blot)", "format": "cell-based, human", "settings": "U937, 1×10^−7 M, measured at 0, 1, 3, 5 days; listed as Vitamin D3"}, "human CAMP promoter": {"system": "human CAMP promoter", "test": "CAMP promoter-firefly luciferase reporter assay in U937 cells", "settings": "U937, 1×10^−7M, 18 h, dual luciferase"}, "CRAMP [1]": {"system": "CRAMP", "test": "CRAMP induction in murine cell line NIH3T3", "format": "cell-based", "settings": "NIH3T3, data not shown", "description": "(§1) To elucidate further the role of the VDR in regulating CAMP gene expression, the expression of the murine CAMP/CRAMP gene was examined in RNA from untreated bone marrow cells from a VDR-deficient mouse and its wild type littermate (FIG. 14A, left panel). Bone marrow RNAs from C/EBPε-deficient and wild type mice were included as controls (FIG. 14A, left panel). As expected, the C/EBPε-deficient bone marrow lacked expression of CRAMP (Verbeek, W. et al., “Myeloid transcription factor C/EBPepsilon is involved in the positive regulation of lactoferrin gene expression in neutrophils,” Blood, Vol. 94, pp. 3141-3150 (1999)). […]. […]."}, "CRAMP [2]": {"system": "CRAMP", "test": "CRAMP in BM Mφ of VDR-deficient or wild type mice (QRT-PCR)", "format": "cell-based", "settings": "for decrease of CRAMP: BM Mφ", "procedure": "Primers against murine CAMP/CRAMP (forward, SEQ ID NO.: 7 and reverse, SEQ ID NO.: 8) (Table 3) were used at 200 nM per reaction.\nThe relative fold change between samples was determined using data normalized for 18S expression. Samples were analyzed in triplicate."}, "CRAMP [3]": {"system": "CRAMP", "test": "CRAMP induction in murine cell line Wehi3B", "format": "cell-based", "settings": "data not shown", "description": "as §1"}, "CRAMP [4]": {"system": "CRAMP", "test": "CRAMP induction in murine myeloid cell line 32Dc13 (Northern blot)", "settings": "32Dc13, 1×10^−7 M, 24 and 48 h"}, "CRAMP [5]": {"system": "CRAMP", "test": "CRAMP expression in bone marrow of treated BNX mice (Northern blot)", "settings": "intraperitoneal, 0.05 μg/mouse every two days for 6 weeks"}}, "data": [{"smiles": "C=C1/C(=C\\C=C2/CCC[C@]3(C)[C@@H]([C@H](C)CCCC(C)(C)O)CC[C@@H]23)C[C@@H](O)C[C@@H]1O", "note": "[1,25(OH)2D3, 1,25-dihydroxyvitamin D3]", "values": [{"measurement": "time at which induction of the CAMP gene occurred", "setting": "CAMP", "value": 1, "unit": "days"}, {"measurement": "activation of deletion mutant pXP2-CAMP(ΔHindIII)-Luc", "setting": "human CAMP promoter", "value": "not activated"}, {"measurement": "activation of deletion mutant pXP2-CAMP(ΔSmaI)-Luc", "setting": "human CAMP promoter", "value": "not activated"}, {"measurement": "activation of the full-length promoter construct pXP2-CAMP-Luc", "setting": "human CAMP promoter", "value": "2-2.5 fold"}, {"measurement": "induction of CRAMP", "setting": "CRAMP [1]", "value": "did not observe induction of CRAMP"}, {"measurement": "induction of CRAMP", "setting": "CRAMP [2]; BM Mφ from VDR-deficient or wild type mice, 24 or 48 h", "value": "CRAMP induction was not observed"}, {"measurement": "decrease of CRAMP", "setting": "CRAMP [2]; 24 h post-treatment (FIG. 14C)", "value": "approximately 2 fold"}, {"measurement": "decrease of CRAMP", "setting": "CRAMP [2]; 48 h (FIG. 14C)", "value": "~5", "unit": "fold"}, {"measurement": "induction of CRAMP", "setting": "CRAMP [3]", "value": "did not observe induction of CRAMP"}, {"measurement": "induction of CRAMP", "setting": "CRAMP [4]", "value": "did not observe induction of CRAMP"}, {"measurement": "CRAMP expression in bone marrow compared with a vehicle-treated mouse", "setting": "CRAMP [5]", "value": "did not significantly alter CRAMP expression"}]}]}
